These results are taken from the antibiotic and cytotoxicity screens of Wong et al. (2023).

Experiment [1] concerns HSkMC (human skeletal muscle cells). The experiment is described as follows: cytotoxicity call (relative viability < 0.9). As to conditions: 10 µM.
Experiment [2] relates to HepG2. The experiment is described as follows: cytotoxicity call (relative viability < 0.9). The following applies: 10 µM.
In experiment [3] the test system is S. aureus RN4220. Description: growth inhibition call (relative growth <= 0.2). As to conditions: 50 µM.

SMILES strings stand for the structures. This is one part of the list.

For `NCC[C@H]1CC[C@H](NC(=O)C2CCC2)[C@@H](CO)O1`, the cytotoxicity call in experiment [1] and in experiment [2] was “inactive” in each case. Further, the growth inhibition call in experiment [3] is “inactive”.
Turning to `COc1ccccc1C#Cc1cnc2c(c1)C(=O)N([C@H](C)CO)C[C@@H](C)[C@@H](CN(C)S(=O)(=O)c1cn(C)cn1)O2`, the cytotoxicity call in experiment [1] and in experiment [2] was “inactive” throughout. The growth inhibition call in experiment [3] was “inactive”.
In the case of `C[C@@H]1CN([C@@H](C)CO)C(=O)c2cccc(NS(=O)(=O)c3ccc(Cl)cc3)c2O[C@H]1CN(C)Cc1ccc(-c2ccccc2)cc1`, the cytotoxicity call in experiment [1] and in experiment [2] was “inactive” each time. In experiment [3], the growth inhibition call was “inactive”.
For the compound `C[C@@H]1CN([C@H](C)CO)C(=O)c2cc(NS(=O)(=O)c3ccc(F)cc3)ccc2O[C@@H]1CN(C)C(=O)Nc1cccc2ccccc12`, the cytotoxicity call in experiment [1] and in experiment [2] was “inactive” in each case. Further, the growth inhibition call in experiment [3] is “inactive”.
Regarding `C[C@H](CO)N1C[C@H](C)[C@H](CN(C)S(=O)(=O)c2cn(C)cn2)Oc2ccc(NS(=O)(=O)c3ccc(F)cc3)cc2C1=O`, the cytotoxicity call in experiment [1] and in experiment [2] was “inactive” in each case. Besides, the growth inhibition call in experiment [3] was “inactive”.
Consider `COc1cc2ccccc2cc1C(=O)OCC(=O)N(CC(C)C)c1c(N)n(Cc2ccccc2)c(=O)[nH]c1=O`, for which the cytotoxicity call in experiment [1] and in experiment [2] was “inactive” throughout. Besides, in experiment [3], the growth inhibition call is “inactive”.
Consider `C[C@H]1CN([C@@H](C)CO)S(=O)(=O)c2ccc(-c3cccnc3)cc2O[C@@H]1CN(C)C(=O)NC1CCCCC1`, for which the cytotoxicity call in experiment [1] and in experiment [2] was “inactive” in each case. The growth inhibition call in experiment [3] was “inactive”.
`C[C@@H]1CN([C@H](C)CO)C(=O)Cc2cc(NC(=O)Cn3cnnn3)ccc2O[C@@H]1CN(C)Cc1ccncc1`: the cytotoxicity call in experiment [1] and in experiment [2] was “inactive” throughout. Besides, the growth inhibition call in experiment [3] is “inactive”.
Consider `COc1ccc(NC(=O)N(C)C[C@@H]2Oc3ccc(NS(=O)(=O)c4cn(C)cn4)cc3C(=O)N([C@H](C)CO)C[C@@H]2C)cc1`, for which the cytotoxicity call in experiment [1] and in experiment [2] was “inactive” in each case. Besides, the growth inhibition call in experiment [3] is “inactive”.
Consider `CCCC(=O)Nc1ccc2c(c1)C(=O)N(C)C[C@@H](OC)[C@H](C)CN(C(=O)Cc1cccnc1)[C@H](C)CO2`, for which the cytotoxicity call in experiment [1] and in experiment [2] was “inactive” throughout. The growth inhibition call in experiment [3] was “inactive”.
As for `O[C@@H]1CCCC[C@H]1O`, the cytotoxicity call in experiment [1] and in experiment [2] was “inactive” each time. Moreover, the growth inhibition call in experiment [3] was “inactive”.
Take `C[C@H]1CN([C@@H](C)CO)C(=O)c2cccc(NC(=O)CCCCCC(=O)Nc3ccccc3N)c2O[C@H]1CN(C)Cc1ccc(-c2ccccc2)cc1`: the cytotoxicity call in experiment [1] and in experiment [2] was “inactive” each time. In experiment [3], the growth inhibition call was “inactive”.
Consider `COc1ccc(NC(=O)Nc2ccc3c(c2)C(=O)N([C@H](C)CO)C[C@@H](C)[C@H](CN(C)CC2CC2)OCCCC[C@@H](C)O3)cc1`, for which the cytotoxicity call in experiment [1] and in experiment [2] was “inactive” in each case. For the same compound, in experiment [3], the growth inhibition call was “inactive”.
Take `C[C@H](CO)N1C[C@H](C)[C@H](CN(C)C(=O)C2CCCCC2)OCCCC[C@H](C)Oc2ccc(NC(=O)c3ccncc3)cc2C1=O`: the cytotoxicity call in experiment [1] and in experiment [2] was “inactive” in each case. In addition, the growth inhibition call in experiment [3] is “inactive”.
With `C[C@H]1O[C@@H](OC[C@H]2O[C@@H](OC[C@]3(C)[C@H]4CC[C@@]5(C)[C@H](CC[C@H]6C7=CC(C)(C)CC[C@]7(C(=O)O)CC[C@@]65C)[C@@]4(C)CC[C@@H]3O)[C@@H](O)[C@@H](O)[C@@H]2O)[C@@H](O)[C@@H](O)[C@@H]1O`, the cytotoxicity call in experiment [1] and in experiment [2] was “inactive” in each case. Also, the growth inhibition call in experiment [3] is “inactive”.
In the case of `C[C@H]1CCCCO[C@H](CN(C)C(=O)c2ccccc2)[C@@H](C)CN([C@@H](C)CO)C(=O)c2cc(NC(=O)Nc3ccc4c(c3)OCO4)ccc2O1`, the cytotoxicity call in experiment [1] and in experiment [2] was “inactive” throughout. For the same compound, in experiment [3], the growth inhibition call was “inactive”.
On to `C[C@@H]1CN([C@H](C)CO)C(=O)c2cc(NC(=O)c3ccncc3)ccc2O[C@@H](C)CCCCO[C@@H]1CN(C)Cc1ccc(C(F)(F)F)cc1`, for which the cytotoxicity call in experiment [1] and in experiment [2] was “inactive” throughout. Also, in experiment [3], the growth inhibition call was “inactive”.
For the compound `C[C@@H]1CN([C@@H](C)CO)C(=O)c2cc(-c3cccnc3)cnc2O[C@@H]1CN(C)Cc1ccc(-c2ccccc2)cc1`, the cytotoxicity call in experiment [1] and in experiment [2] was “inactive” in each case. Further, in experiment [3], the growth inhibition call was “inactive”.
Regarding `CO[C@@H]1CN(C)C(=O)c2ccc(NS(=O)(=O)CC(F)(F)F)cc2OC[C@H](C)N(C(=O)NC(C)C)C[C@H]1C`, the cytotoxicity call in experiment [1] and in experiment [2] was “inactive” throughout. Moreover, the growth inhibition call in experiment [3] is “inactive”.
For `CCS(=O)(=O)Nc1ccc2c(c1)C(=O)N(C)[C@@H]1CC[C@@H](CC(=O)NCc3ccc(OC)cc3)O[C@@H]1CO2`, the cytotoxicity call in experiment [1] and in experiment [2] was “inactive” each time. Moreover, the growth inhibition call in experiment [3] is “inactive”.
With `CC(C)NC(=O)Nc1cccc2c1O[C@H](CN(C)Cc1ccc(C(=O)O)cc1)[C@H](C)CN([C@H](C)CO)C2=O`, the cytotoxicity call in experiment [1] and in experiment [2] was “inactive” in each case. Moreover, in experiment [3], the growth inhibition call was “inactive”.
As for `C[C@H](CO)N1C[C@H](C)[C@@H](CN(C)C(=O)Cc2ccccc2)Oc2ncc(C#CC3(O)CCCC3)cc2C1=O`, the cytotoxicity call in experiment [1] and in experiment [2] was “inactive” throughout. For the same compound, in experiment [3], the growth inhibition call was “inactive”.
`Cc1ccc(S(=O)(=O)Nc2ccc3c(c2)CC(=O)N([C@H](C)CO)C[C@@H](C)[C@H](CN(C)Cc2ccc(C(F)(F)F)cc2)O3)cc1`: the cytotoxicity call in experiment [1] and in experiment [2] was “inactive” each time. Also, the growth inhibition call in experiment [3] was “inactive”.
`C[C@H]1CN([C@@H](C)CO)C(=O)c2cc(NS(=O)(=O)c3cn(C)cn3)ccc2O[C@@H]1CN(C)S(=O)(=O)c1ccccc1`: the cytotoxicity call in experiment [1] and in experiment [2] was “inactive” each time. In addition, the growth inhibition call in experiment [3] was “inactive”.
Take `CC(C)CCC[C@@H](C)N`: the cytotoxicity call in experiment [1] and in experiment [2] was “inactive” in each case. Moreover, the growth inhibition call in experiment [3] was “inactive”.
With `Cc1ccc(S(=O)(=O)Nc2ccc3c(c2)CC(=O)N([C@H](C)CO)C[C@@H](C)[C@@H](CN(C)Cc2ccc(C(F)(F)F)cc2)O3)cc1`, the cytotoxicity call in experiment [1] and in experiment [2] was “active” throughout. In addition, the growth inhibition call in experiment [3] is “inactive”.
Consider `C[C@@H]1CN([C@@H](C)CO)S(=O)(=O)c2ccc(C#CCN(C)C)cc2O[C@@H]1CN(C)C`, for which the cytotoxicity call in experiment [1] and in experiment [2] was “inactive” in each case. For the same compound, the growth inhibition call in experiment [3] is “inactive”.
